# Experimental data taken from PubChem BioAssay (NCI).
# Some structures have more than one record in an assay (separate samples or runs), and their calls can disagree.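 Treatment: one concentration, 48 hours, 96-well format. Scoring: percent growth, with anything below 10 considered active.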 The source holds more than one record for some entries. The other results are left out here. The source may hold further records. These are repeated runs of one drug, at the concentration stated with the values; one value stands for one run. Brackets with × say how often a value occurs here.
# Experiments:
# RPMI-8226 leukemia = test: NCI-60 one-dose screen, 48 h (100 = growth as untreated, 0 = no growth, -100 = all killed); conditions: 2.5 mM
# OVCAR-8 ovarian = test: as above; conditions: 2.5 mM
structure (smiles),measurement,setting,value
O=c1[nH]cc(F)c(=O)[nH]1,growth,RPMI-8226 leukemia; runs of 1992,"inactive: 27.1, 18.2, 20.1, 13.4 (2×), 50.2, 22.2, 17.8, 14.9 (3×), 21.2, 34.6, 28.7, 66.9, 20.5 (3×), 15.4, 19.9, 10.2, 19.1 (2×), 14.2, 15.9, 12, 12.7, 25.4, 26.1, 36.6, 10.1 (3×), 17.3, 26.9, 28.1, 13.8, 68.2, 21.9, 47.1, 20.8 (2×), 10.8, 22.5 (2×), 14.6 (4×), 21.4, 37.1, 17.6, 29.7, 10.3, 17.9 (2×), 17 (2×), 49.7, 30.2, 11.2, 20, 16.2 (2×), 33.6, 24.4, 11.5, 15.7, 14.8, 21.3, 19.6, 40.5, 27.7, 12.2, 16.4, 12.6, 57.6, 12.8, 20.6, 16.1, 10.6, 27.9, 18% and active: 8.77, 8.04, 6.69, 9.93, -7.59, 4.66, -0.254, 4.09, 0.12, -40.2, 9.6, 9.87, -31, -38.4, -16.1, 7.93, 8.67, 5.22, 5.82, 6.27, 2.83, 5.65, 8.87, 8.29, 3.68, 8.51, -1.66, -16.2, 5.76, 6.57, 4.58, 9.05, 5.77, 8.71%"
same,growth,RPMI-8226 leukemia; runs of 1993,"inactive: 12.5 (2×), 22.5, 53.4, 11.4, 16.6, 15, 24.6, 14.7, 29.5, 12.2, 14.9 (2×), 34.6, 13.4 (2×), 12.8, 11.6 (2×), 18.9, 37.2, 23.3, 10.9, 11.7, 47.1, 19.8, 11.1, 114, 55.9, 36.2, 12.4, 11.3, 14, 24.1% and active: 4.14, 3.6, 3.02, -22.3, -5.85, 1.75, 7.96, 4.53, -15.6, 5.8, 4.13, 8.57%"
same,growth,RPMI-8226 leukemia; runs of 1994,"inactive: 25.5, 17.8, 12.7, 47.4, 39.1, 16.1, 22.1, 19.6 (2×), 26.6, 35.9, 16.6, 12.9, 10.5, 16.5, 29.8, 27, 34.1, 16.2% and active: 8.57, 8.29, 5.65, 6.13, 9.98, 6.55, 6.89, 7.82, -4.4, -30.3, -0.348, -6.23%"
same,growth,RPMI-8226 leukemia; runs of 1995,"inactive: 14.6, 21.2, 34.5, 26.7, 19.1, 14.7, 46.5, 13.6, 12.1, 35.2, 23.2, 42.4, 15.3, 18.5, 18.6% and active: 4.19, 6.76, -2.83, -35.5, -17.1, 0.876, -8.03, 0.101, 1.52, 7.3, 9.08, -17.6, -7.78, -18.8, 9.39, 4.28, 6.33, -7.97, -15.7%"
same,growth,RPMI-8226 leukemia; runs of 1996,"inactive: 11.5 (2×), 46.1, 25.9, 18.6, 10.3, 45.7, 10.4, 10.9, 17.5, 28.7, 26.2, 21.7, 19.6, 24.4, 34.8% and active: -16.6, -13.1, -8.75, -26.9, 4.4, -18.5, 0.721, -12.2, 8.86, -10.3, 6.93, 5.04, 5.5, -60.1, -16, -38.6, -6.45, -23.4, -14, -9.47, 4.21 (2×), 8.27, 0.46, -4.97, 5.73, -23.6, 7.59, 6.75%"
same,growth,RPMI-8226 leukemia; runs of 1997,"active: 5.21, 2.11, 4.81, 8.08, 3.28, -21.6, -28.3, -15.5, 4.55, -31.7, 7.69, 0.354, -0.75, 7.11, -5.17, -3.43, 3.5, -4.89, -10.6, -75.8, -3.7% and inactive: 78.2, 21.1, 10.6, 13.3, 15.4 (2×), 17.9 (2×), 15.2, 33.1, 30.8, 25.3, 10.7, 44, 11.6, 16, 14.1, 67.2, 22.7, 10.9%"
same,growth,RPMI-8226 leukemia; runs of 1998,"inactive: 21.2, 16.7, 36.2, 13.7, 16.2, 19.7, 22.5, 11.4, 15.2, 41.4% and active: 3.21, -19, -0.939, -11.4, 3.95, 2.94, 9.48%"
same,growth,RPMI-8226 leukemia; runs of 1999,"inactive: 41.2%, 104% and active: 4.37, 1.36, -65.4, -53.4, -20.8, -82.6, -42.6, 0.721, 3.76, 5.92, 4.95, 3.96%"
same,growth,RPMI-8226 leukemia; runs of 2000,"active: -5.6%, -18.4% and inactive: 14.1% (2×)"
same,growth,OVCAR-8 ovarian; runs of 1991,"inactive: 17.8, 20.2 (2×), 17.6, 18.2, 19.3, 24.2, 25.9, 46.8, 20, 16.7, 15.5, 17.1, 27.6, 10.7, 16.8, 33.4, 30.2, 19.7% and active: -27.3%"
same,growth,OVCAR-8 ovarian; runs of 1992,"inactive: 17.8, 11.7, 21, 83.9, 33.1 (2×), 28, 28.4 (3×), 16.7, 22.8, 14.4, 10.3, 29.1, 23.6, 33.6 (2×), 24.7, 24.5, 42.4, 22.9, 16.2, 22.2, 52.3, 32.9, 30.7, 11, 27.3 (3×), 21.4, 26.1, 38.9, 44.5, 36.7 (2×), 31, 42.6, 33.2, 18.6, 19.2, 23.3, 28.8, 24, 20.7, 25.8 (2×), 20.5, 13, 31.4, 30.2, 28.1 (3×), 30.5, 25.9 (2×), 24.9 (2×), 22.7, 20, 29.7, 20.6, 93.9, 34.2, 38.6, 18.7, 34.4, 30.1, 24.8, 35, 38.2, 19.5, 29.6 (2×), 18.3, 31.1, 29.4, 21.8, 28.9, 26.7 (2×), 26.4, 21.2, 18, 17.1, 36.4, 39.3, 30.3, 38, 42.9, 34.5, 27.2, 12.5, 17.9, 19.4, 47, 14.2, 27.8, 24.1, 25.3, 13.3, 26, 29.9, 32.7, 14.5, 32.1, 27, 35.5, 28.7, 16.1, 28.6, 12.1, 37.2, 21.7% and active: 9.65, 6.39, 5.35, 0.217, -62.5%"
same,growth,OVCAR-8 ovarian; runs of 1993,"inactive: 14.4, 20.9, 31.6, 29.4, 28, 23.5, 23.9, 30.8, 29.1, 32.6, 25.2, 27.6 (2×), 25.5, 14.1, 29.9, 31.5, 18.3, 28.6, 31.3 (2×), 22.5, 16.9, 24.1, 39.3, 31, 34.3, 28.2 (2×), 20.2 (3×), 20.3, 24.8, 27.8, 15.3 (2×), 77.2, 16.7, 66.8, 20, 12.6, 41, 26.3, 27.3, 26.1% and active: -16.2%"
same,growth,OVCAR-8 ovarian; runs of 1994,"inactive: 28.9, 22.4, 20.1, 26, 13, 27.6, 15.7, 25.3 (2×), 26.3, 15.8, 34.3, 15.3, 22.6, 42.4, 14.7, 17.6, 29.2, 24.4, 24.2, 30.6, 22.7, 27.2, 18.7, 25.4, 35.4, 24.7, 31.5, 16.8, 38% and active: 1.2, 9.15, 8.29, 6.51%"
same,growth,OVCAR-8 ovarian; runs of 1995,"inactive: 35.7, 30.8, 18.5, 18.2, 23.1, 26.5 (2×), 28.1, 29.7 (2×), 25, 15.6, 36.6, 12.2, 21.3, 41.1, 28.6, 22.7, 31.3, 30.3, 19.4, 21.5, 22, 26.3, 32, 52.5, 38.3, 33.7, 35.4, 18.9, 36.2, 28.3, 27.9, 21.9, 17.2, 17.7, 34.5% and active: -1.59%"
same,growth,OVCAR-8 ovarian; runs of 1996,"inactive: 28.8, 22.8, 22.4, 35.3, 35.1, 26.6 (2×), 24.4 (2×), 30.1, 21.9, 16.2, 24.9, 37.2, 30.2, 34.2, 33.1, 33, 40.8, 18.3, 28.9, 34, 27.1, 34.9, 36.7, 20.1 (2×), 29.9 (2×), 27.3, 21.4, 28, 31, 29.2, 21, 25.2, 32.8, 37.9, 31.3, 41, 37.4, 24.3, 21.2, 21.3, 16.5, 34.8, 43.4, 38.2, 24.5, 35.6, 24.1, 36.5, 29% and active: 6.82, -24.2, 5.92, 9.57, 5.85, 6.1%"
